Assay results reported in the supplement of paper PMC11417369.
Some of the results follow.

Tested on: PfHDP1 homeodomain (GST-tagged)
Assay: gcPBM binding intensity (ln(normalized median fluorescence intensity)); higher = stronger DNA binding
Outline: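 After 1 h on an Agilent 4 × 180k array of primer-extended double-stranded 36-bp intergenic genomic probes and negative controls, bound GST-tagged P. falciparum DNA-binding domains were detected with Alexa488 anti-GST antibody and scanned at 488 nm. The domains had been expressed in E. coli, and binding took place in 1× PBS with 1% milk, 0.2 mg/ml BSA, 0.5% salmon testes DNA and 0.03% Triton X-100. Binding intensity is the highest Masliner-normalised natural-log median intensity across replicate spots of either probe orientation.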

Row | Sequence | gcPBM binding intensity (ln)
1 | ATTATAAATAAAATATGTACATATGTATAAATACAT [XGTACX_site4002] | 6.39
2 | TATATATATATATATATATATATTTTTATTATATAT [XGTACX_negctrl_site89] | 9.39
3 | TTTATCCTTCTTTTGAGTACTCAAAGAGACCTATAA [XGTACX_site8050] | 7.04
4 | AAAAAAAACAGACACACACACAAATATTTATATATC [CACACA_site6342] | 6.72
5 | ATTATAAATATAAATATAAATATATATTGTTCCGCA [TGCATGCA_negctrl_site470] | 5.96
6 | TTGCACTCGTAAAAAGCACACATATAAAAACATTTA [CACACA_site7997] | 6.92
7 | TTAAAAATGTTATAATGTACATATAATATTTTATGA [XGTACX_site5954] | 6.37
8 | AAAAAAAATCAGACAGGTACACATTCCATGTTCAAA [XGTACX_site5380] | 6.15
9 | CATTAATATATATATAGTACATATACACCTTCATTA [XGTACX_site8473] | 6.58
10 | ATATATTATATTTAAGTGCATTAATTAAAATGCTTA [GTGCAC_site9403] | 9.6
11 | TAAGAATACGAAAGGTGTACACTGTGGAGACTTCAA [XGTACX_site2619] | 6.86
12 | AAAATAAATATAAAATGTACTTATATATATATATAT [XGTACX_site7803] | 9.12
13 | TATGAAGTGCACAATACACACTAATTCTATATAAAT [CACACA_site7269] | 10.3
14 | CAATTAAAAAATAATACATGCATATAAATAGATATT [TGCATGCA_site427] | 6.3
15 | ATAATTAAATAAAAAAGTACACATACATCATAATGC [XGTACX_site7656] | 6.61
16 | TATAATATATATGTAACACACAAAAGTTATATACTT [CACACA_site2868] | 6.39
17 | TATATAATAACATATGCATGCAAGTAATATAACCAA [TGCATGCA_site324] | 7.29
18 | ATAAAATTATATACTCGTACACAAAAAAAAAAAATA [XGTACX_site6035] | 6.59
19 | AAATATATTTTTTTTTGTACTCAAAAAGAAAAAAAA [XGTACX_site8540] | 6.03
20 | AAAAATTGAATGATGTGTACTTAAAAGAATATAGAA [XGTACX_site6588] | 6.56
21 | TTTTAATTAAATACAAAAAAAAAAAAAAAAAAAAAA [CACACA_negctrl_site1631] | 5.97
22 | TTTACACTTTTTTTTGTACACACTAATAAGATTAAC [CACACA_site9304] | 6.86

Row | Sequence | gcPBM binding intensity (ln)
23 | AAAAAAATTTTTAAAAGTACATTAATATTAATATGT [XGTACX_site5177] | 6.77
24 | ACATTACAATTATTATAATCAATATATAACCTCTAA [TGCATGCA_negctrl_site105] | 6.47
25 | TTTTTTTATTATTATTGTACAAGGCCTTAGGTGATT [XGTACX_site5050] | 6.53
26 | TTTTCATGTTTTTTTCTTTATTTTTTTTTTTTTTTT [GTGCAC_negctrl_site511] | 6.24
27 | TACTTAATTATAAGGACATGCACAAAAGGAATTATT [TGCATGCA_site468] | 8.01
28 | AATTTTCATTTTAGAAGTACACACAAAAAATAAAAT [XGTACX_site4426] | 6.58
29 | ATTATATTTCAATTATGTACATATAAAATGAATAAA [XGTACX_site4204] | 6.23
30 | ATAAAATGCGCAAACACACACAAAAAAAAGATATAT [CACACA_site6875] | 7.67
31 | TTTTTAATTAATCTTATAAATATTTATAAATATATA [CACACA_negctrl_site1485] | 6.39
32 | ATGTAATCATTTTCGACTTTTTTTTTTTTTTTTTTT [CACACA_negctrl_site1132] | 6.66
33 | AGGAAATGTTTATATACATGCATAATTAAATATAAT [TGCATGCA_site672] | 6.58
34 | CATATTGTCATTCTGGTGCACTTTTTTTTTTTTTTT | 10
35 | ATATAATATAACAATACGCACACGTATACAAAAAAA [CACACA_site3151] | 7.03
36 | AATAAAAAAAAAAATAATATATATGTATAAATATAT [CACACA_negctrl_site1561] | 6.32
37 | AATACTCCATTGTATAGTACATATATTTTTATTTAT [XGTACX_site3641] | 6.41
38 | AGAATTTATAAAAACTGTACATATTTTCCAGTTATA [XGTACX_site2848] | 6.04
39 | TATTTTTATTTATATACACACTTACATATTTATATT [CACACA_site7666] | 6.67
40 | GTTGTAAAAAGAAAATGTACGTAATAAATATATATA [XGTACX_site3081] | 6.98
41 | ATAAATAATATAAATACACACTAAAAAAGATATATA [CACACA_site6397] | 6.67
42 | AAATAAAATACAATATGATAAAATGTTATCATATAT [CACACA_negctrl_site538] | 6.19
43 | AATAAAAGGAATAATTGTACATAATGATTATACGTT [XGTACX_site7548] | 6.25
44 | TTTTGTAAAATTAATTTATTATACATATATATTTCT [GTGCAC_negctrl_site728] | 6.35

Row | Sequence | gcPBM binding intensity (ln)
45 | TTATTTTAATTTTTGGTGCATATTCAAGTGTACCTT [GTGCAC_site9791] | 9.95
46 | TAATGTACTTAAACCGCACACATATAAAAAAATAAA [CACACA_site8926] | 6.5
47 | TATTTACATATTTATATACACACTTTTGCGTGTCTG [CACACA_site1110] | 6.62
48 | TATTTTAACTTCTCATGTACATATATTATGTCTATA [XGTACX_site249] | 6.9
49 | CTTTGTAGTATATTAACACACAACTATTTATAATAT [CACACA_site3934] | 6.56
50 | TATCATAAACTTCCTTACTATACTTTTCTTATTCAT [CACACA_negctrl_site1341] | 6.5
51 | TAAAAAGGAAAACACACACACACATATATATATATA [CACACA_site3588] | 9.21
52 | ATTTTTAAGCATATCAAAAAAAAAAAAAAAATTAAT [CACACA_negctrl_site980] | 6.16
53 | TTATTATTAAGACACACACACAAAAAAAAAAAAAAA [CACACA_site6805] | 6.35
54 | TTTCCAATTAGTTTTGCATGTTGAAAAAATGTTGGA [TGCATGCA_site1035] | 6.4
55 | GGAAACACAATATATACACACATATATATATATATA [CACACA_site235] | 9.38
56 | ACACTTAAATATTGTTGTACAAAATGATAAAATGTA [XGTACX_site4588] | 6.83
57 | TTGATGTATACAATGTAGATTATTTAATATTTCAAT [GTGCAC_negctrl_site203] | 6.12
58 | ATTTATATTATAATATGTACACAAAAAAAATTAGGA [XGTACX_site565] | 6.91
59 | TTATATAACCCTCATGCATGCTAAGAAAAAAAAAAC [TGCATGCA_site936] | 6.59
60 | TAACATATCTTTAATACACACTTAAAAAAGTACTTA [CACACA_site4532] | 6.31
61 | TTGTTAGAGTATATTGAAAGGATAACCTTTTTTTAT [XGTACX_negctrl_site122] | 6.04
62 | TTTTTAATAAAATGATTGATAATTATTAAATTAAAA [CACACA_negctrl_site488] | 5.79
63 | TTGTGTTTGCGTAAATGTACGGAAAGACTTGAAGAC [XGTACX_site7235] | 6.97
64 | ACCATACATACATACACACACACACCCATATATATA [CACACA_site2917] | 7.59
65 | TTTCATGTTTTAAAGTGTACATAAATATATTATATG [XGTACX_site3367] | 6.77
66 | GAGCACCAAAATATATGTACATATGATAAATGTGAA [XGTACX_site1130] | 6.97

Row | Sequence | gcPBM binding intensity (ln)
67 | ACATATATATAATATATATTTTTCGTGTGGTGTCAC [CACACA_negctrl_site543] | 6.62
68 | TCACTTTTATAATATAATATTCTATATCTTATTTTT [GTGCAC_negctrl_site717] | 6.39
69 | TTTTTTATTTTATTTTTTTCTGCTTATCCACATTAG [XGTACX_negctrl_site108] | 6.48
70 | ATCATTGAAGTTAAAAATATAAAGTATTCAGAAGGG [XGTACX_negctrl_site560] | 6.76
71 | AATATATATATAGGATGTACACATAATTCAAATATA [XGTACX_site2755] | 6.75
72 | AGCCATTATAATTCTTGTACATAATATAGCTATTTT [XGTACX_site1723] | 6.87
73 | AATAATATTGAAATGTGTACGTATTTATATTTTATG [XGTACX_site8252] | 6.45
74 | TTTTTCTTTTTTACAGTGCATAAATATATGTATTGT [GTGCAC_site9399] | 8.27
75 | TTTTGTTATATTCAATATTTATATATTATAAATATA [CACACA_negctrl_site1705] | 6.41
76 | TTGTGAATAACTAAGAAGAAAAAGATAAATATGTAT [TGCATGCA_negctrl_site388] | 7.14
77 | TATTCATGCATATACACACACATATATTTATATTTT [CACACA_site7786] | 7.08
78 | AATAATATATGGTGTACACAAAAGTATAAATAATTT [CACACA_site5338] | 7.19
79 | TATAAAAAAATAATAAATAAATAAAAAGATTTCTTT [TGCATGCA_negctrl_site122] | 5.73
80 | TAGATACATACACGCACACACATATATAAATAAATA [CACACA_site6157] | 7.75
81 | TTACGTATGTATTATGTTGTATATGAAATTAAAAAA [GTGCAC_negctrl_site292] | 6.26
82 | TAATTATGTACTATTATACACACGTTTAATTGTAAA [CACACA_site206] | 6.52
83 | AAAAAAAACAGACACACACACATACACATACATACA [CACACA_site2857] | 6.96
84 | TATTTAAATTGTAAGTGTACATATATAAATGTAAAA [XGTACX_site1609] | 6.35
85 | TATATAGTAATTTATTCACACAATTGGCACACCTCA [CACACA_site4679] | 6.67
86 | TATAATATATATTTGTGTCCACAACATTTTTAATAT [XGTACX_site2089] | 6.52
87 | TAGATACAGAAACACACACACACATACATATATACA [CACACA_site3437] | 6.75
